Assay results published in EPA's CvTdb concentration-time database.
The source gives many values for each of these; only a part stands here.

Assays:
Assay in all cases: concentration in plasma after dosing
Rat [1] = details: 2 h; dosed: 2-Hydroxy-4-methoxybenzophenone; 100 mg/kg; oral; Male; F344
Rat [2] = details: 0.25 h; dosed: 2-Hydroxy-4-methoxybenzophenone; 8 mg/kg; iv; Male; F344
Rat [3] = details: 4 h; dosed: 2-Hydroxy-4-methoxybenzophenone; 500 mg/kg; oral; Female; F344
Rat [4] = details: 0.5 h; dosed: 2-Hydroxy-4-methoxybenzophenone; 8 mg/kg; iv; Male; F344
Mouse [5] = details: 6 h; dosed: 2-Hydroxy-4-methoxybenzophenone; 50 mg/kg; iv; Female; B6C3F1
Rat [6] = details: 6 h; dosed: 2-Hydroxy-4-methoxybenzophenone; 500 mg/kg; oral; Female; F344
Rat [7] = details: dosed: 2-Hydroxy-4-methoxybenzophenone, 100 mg/kg, oral, Female, F344
Rat [8] = details: dosed: 2-Hydroxy-4-methoxybenzophenone, 250 mg/kg, oral, Male, F344
Mouse [9] = details: 5 min; dosed: 2-Hydroxy-4-methoxybenzophenone; 500 mg/kg; oral; Female; B6C3F1
Rat [10] = details: dosed: 2-Hydroxy-4-methoxybenzophenone, 250 mg/kg, oral, Female, F344
Rat [11] = details: dosed: 2-Hydroxy-4-methoxybenzophenone, 500 mg/kg, oral, Female, F344
Mouse [12] = details: 1.5 h; dosed: 2-Hydroxy-4-methoxybenzophenone; 50 mg/kg; iv; Female; B6C3F1
Mouse [13] = details: 4 h; dosed: 2-Hydroxy-4-methoxybenzophenone; 500 mg/kg; oral; Female; B6C3F1
Mouse [14] = details: 6 h; dosed: 2-Hydroxy-4-methoxybenzophenone; 250 mg/kg; oral; Male; B6C3F1
Rat [15] = details: dosed: 2-Hydroxy-4-methoxybenzophenone, 100 mg/kg, oral, Female, F344; remark: listed apart in the source
Rat [16] = details: dosed: 2-Hydroxy-4-methoxybenzophenone, 8 mg/kg, iv, Male, F344
Mouse [17] = details: 6 h; dosed: 2-Hydroxy-4-methoxybenzophenone; 500 mg/kg; oral; Female; B6C3F1
Mouse [18] = details: 1 h; dosed: 2-Hydroxy-4-methoxybenzophenone; 500 mg/kg; oral; Male; B6C3F1
Rat [19] = details: dosed: 2-Hydroxy-4-methoxybenzophenone, 8 mg/kg, iv, Male, F344; remark: listed apart in the source
Mouse [20] = details: 6 h; dosed: 2-Hydroxy-4-methoxybenzophenone; 250 mg/kg; oral; Female; B6C3F1
Mouse [21] = details: 6 h; dosed: 2-Hydroxy-4-methoxybenzophenone; 500 mg/kg; oral; Male; B6C3F1
Rat [22] = details: 16 h; dosed: 2-Hydroxy-4-methoxybenzophenone; 8 mg/kg; iv; Male; F344
Mouse [23] = details: 4 h; dosed: 2-Hydroxy-4-methoxybenzophenone; 250 mg/kg; oral; Male; B6C3F1
Mouse [24] = details: 1 h; dosed: 2-Hydroxy-4-methoxybenzophenone; 500 mg/kg; oral; Female; B6C3F1
Rat [25] = details: dosed: 2-Hydroxy-4-methoxybenzophenone, 100 mg/kg, oral, Female, F344; remark: listed apart in the source
Mouse [26] = details: 5 h; dosed: 2-Hydroxy-4-methoxybenzophenone; 250 mg/kg; oral; Female; B6C3F1
Mouse [27] = details: 5 min; dosed: 2-Hydroxy-4-methoxybenzophenone; 500 mg/kg; oral; Male; B6C3F1
Rat [28] = details: 6 h; dosed: 2-Hydroxy-4-methoxybenzophenone; 500 mg/kg; oral; Female; F344; remark: listed apart in the source
Rat [29] = details: 12 h; dosed: Perfluorohexanoic Acid; 80 mg/kg; oral; Female; Harlan Sprague Dawley
Rat [30] = details: dosed: Perfluorohexanoic Acid, 40 mg/kg, Male, F344
Rat [31] = details: dosed: Perfluorohexanoic Acid, 40 mg/kg, Male, F344; remark: listed apart in the source
Rat [32] = details: dosed: Perfluorohexanoic Acid, 160 mg/kg, oral, Male, Harlan Sprague Dawley
Rat [33] = details: dosed: Perfluorohexanoic Acid, 80 mg/kg, oral, Female, Harlan Sprague Dawley
Rat [34] = details: dosed: Perfluorohexanoic Acid, 160 mg/kg, oral, Female, Harlan Sprague Dawley

O=C(c1ccccc1)c1ccc(O)cc1O [2,4-Dihydroxybenzophenone]
Details	concentration in plasma [ng/mL]
Mouse [5]	123
Mouse [9]	2040
Mouse [12]	96
Mouse [13]	592
Mouse [14]	222
Rat [1]	48
Rat [2]	52.8
Rat [3]	297
Rat [4]	37.9
Rat [6]	241

Details	concentration in plasma [ng/mL]
Rat [7], 1.5 h	162
Rat [7], 8 h	59.1
Rat [8], 1 h	283
Rat [8], 6 h	107
Rat [10], 1 h	565
Rat [10], 6 h	147
Rat [11], 2 h	561
Rat [11], 5 min	41.2
Rat [15], 2 h	78
Rat [15], 5 min	47.2

COc1ccc(C(=O)c2ccccc2)c(O)c1 [2-Hydroxy-4-methoxybenzophenone]
Details	concentration in plasma [ng/mL]
Rat [16], 0.5 h	593
Rat [16], 8 h	16.3
Rat [19], 4 h	56.2
Rat [19], 5 min	8660
Rat [25], 1 h	70.1
Rat [25], 6 h	4.5

Details	concentration in plasma [ng/mL]
Mouse [17]	574
Mouse [18]	117
Mouse [20]	26.5
Mouse [21]	67.7
Mouse [23]	31.2
Mouse [24]	302
Mouse [26]	29.2
Mouse [27]	69.5
Rat [22]	5.98
Rat [28]	74.9

O=C(O)C(F)(F)C(F)(F)C(F)(F)C(F)(F)C(F)(F)F [Perfluorohexanoic Acid]
Details	concentration in plasma [ng/mL]
Rat [29]	164

Details	concentration in plasma [ng/mL]
Rat [30], 0.75 h	74800
Rat [30], 24 h	267
Rat [31], 3 h	830
Rat [31], 5 min	285000
Rat [32], 3 h	182000
Rat [32], 5 min	92900
Rat [33], 0.25 h	79700
Rat [33], 24 h	33.1
Rat [34], 0.5 h	281000
Rat [34], 9 h	915
